# The supplement of paper PMC3334620
# Whole data set: some 33,000 sequences, median “E-score (-0.5 to 0.5)” near -0.036, cut for the highest 2% near 0.37. The list shows a part of the results.
# Biological target: T1, Yer064c (UniProt P40041)
# T1 sequence: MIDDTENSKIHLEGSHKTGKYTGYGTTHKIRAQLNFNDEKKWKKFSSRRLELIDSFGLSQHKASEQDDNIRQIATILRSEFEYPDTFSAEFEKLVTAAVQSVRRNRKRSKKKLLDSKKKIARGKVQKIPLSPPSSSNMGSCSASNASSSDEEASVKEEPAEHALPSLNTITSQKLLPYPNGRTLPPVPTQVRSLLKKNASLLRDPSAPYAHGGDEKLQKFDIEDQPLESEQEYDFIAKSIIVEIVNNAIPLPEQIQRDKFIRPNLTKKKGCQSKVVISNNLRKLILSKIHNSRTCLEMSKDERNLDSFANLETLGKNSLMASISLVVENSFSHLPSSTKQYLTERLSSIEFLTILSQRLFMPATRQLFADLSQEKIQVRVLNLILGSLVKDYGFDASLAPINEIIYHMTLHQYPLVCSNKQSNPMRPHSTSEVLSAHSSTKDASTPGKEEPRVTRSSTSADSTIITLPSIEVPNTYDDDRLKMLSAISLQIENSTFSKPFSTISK
# Test: PBM E-score (8-mer binding enrichment) (E-score (-0.5 to 0.5)); higher = stronger / more preferred TF binding; most listed sequences are background and not binding sites
# Details: protein concentration: 200 nM; construct: GST-full length
# Procedure, shortened: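 Detection of bound protein used fluorescent anti-GST, with scans normalised by masliner. The proteins were GST-tagged yeast transcription factors applied at about 100-200 nM to universal all-10-mer Agilent arrays made double-stranded by primer extension. Each ungapped eight-base word, pooled with its reverse complement, was scored with an E-score from the Universal PBM Analysis Suite.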
row,Sequence,PBM E-score
1,AACTCTGA,0.186
2,AGATCTTG,-0.125
3,ACTAGGAC,0.088
4,GAAAGTGA,0.161
5,AACCAGAA,0.118
6,AGGCATAA,-0.109
7,CTGCACTA,-0.103
8,CAATATAG,0.0715
9,CAGAAAGC,-0.00397
10,ACGTCGAA,-0.00381
11,GGTTTAAA,0.123
12,AAGTCCGT,-0.0735
13,GTGCACAA,-0.106
14,ATGGTCGG,-0.0135
15,AGTACCGC,-0.217
16,ATTGTCTG,0.0875
17,CTGGGGAA,-0.114
18,TAATTGTA,0.191
19,AGAACCTC,-0.301
20,CCGTAGCG,-0.135
21,ATCATCAC,0.349
22,ACTTCGCA,0.025
23,ACACCGTA,-0.131
24,CAGGTAGC,-0.0547
25,CCTCATCC,-0.323

row,Sequence,PBM E-score
1,CTACGGGC,-0.419
2,TCAAGTGA,0.235
3,TGGGAAAA,-0.21
4,CAATGCGC,-0.139
5,TCTCAGAA,0.178
6,AAGCATTA,0.0134
7,AATATTGA,0.239
8,CCCTACCC,-0.156
9,GACGTGCA,-0.077
10,AGGCCTCG,-0.184
11,AATATTCG,-0.197
12,AGATGACT,0.487
13,GCAAACGC,-0.259
14,CGACGCCG,0.0399
15,AAAAGAGG,-0.0922
16,ATGCTCCA,-0.216
17,GAATTCGC,-0.0486
18,AAGGACGA,-0.0247
19,GACGTATC,-0.332
20,CAATCTCG,-0.0069
21,ACCGGGCC,-0.125
22,ACCGACAC,0.114
23,AGGTATAC,0.0838
24,GCTTTGAC,0.0924
25,TAGTAGGA,0.0548

row,Sequence,PBM E-score
1,TCCAACAA,0.11
2,ACTAACAA,0.237
3,CTCCATTA,-0.127
4,CGTGCCAG,-0.123
5,AAGGTGAT,0.176
6,AGGCAGCA,-0.02
7,CCTTAGAC,0.063
8,ACCACAAA,0.0622
9,CCGACGAC,0.109
10,AATATAAT,0.0228
11,ATCGTCCC,-0.18
12,AAGCGTCG,-0.218
13,GTTGCCGA,-0.0746
14,AACCTCGC,-0.0768
15,CCCTCCAG,-0.413
16,GACCGAGA,0.00247
17,CGTCTTCC,-0.0994
18,GCCATCAA,-0.0742
19,TAACTTGA,0.298
20,CCTACGCA,-0.0459
21,AGCCTACT,-0.0484
22,AGTCGCTC,0.382
23,ATCTGAAC,0.0354
24,ACTTCTGG,-0.123
25,CAGCATTC,-0.155

row,Sequence,PBM E-score
1,CATGACAC,0.11
2,CGATGCTA,-0.124
3,CGTGCGCA,-0.144
4,CAGGGTGA,0.123
5,CCCTAAGC,-0.311
6,CCAACATA,0.121
7,CAAGTCTG,-0.0223
8,GTTCGGTA,0.108
9,TGGCCGAA,-0.0951
10,CTCTCATA,0.187
11,CGTCTACA,0.00611
12,AACGGATG,-0.0159
13,GTTACATA,-0.0777
14,ACTTTGTG,0.137
15,ACGCGGGA,-0.198
16,GCCTGCAC,-0.167
17,CGCCACGA,-0.0758
18,ACCAAATA,0.041
19,ACGATGGA,0.073
20,AGGGGATG,-0.153
21,AAGTAGGC,-0.248
22,AGATGCCG,-0.214
23,CGGCCCAA,-0.293
24,CGGAACCA,0.103
25,ATTGATGA,0.312

row,Sequence,PBM E-score
1,TTAGTAAA,0.13
2,ACCGCGAG,0.0163
3,GACTAGCC,0.322
4,TCTATAAA,0.101
5,CCCATGCA,-0.0198
6,ACAACTAT,0.0891
7,CATCTTAC,0.0433
8,AGCATAGG,-0.197
9,ACACTAGA,0.0141
10,CGGATATC,-0.0492
11,ATAGTCGA,0.249
12,TACTTTAA,-0.0478
13,ACAAGGGG,-0.186
14,ACCTATCG,-0.16
15,TTCACGAA,0.03
16,ATGGCTTA,0.167
17,ATCAAGAT,0.157
18,GGCCGATA,-0.159
19,AGGGCTTC,-0.236
20,GCCATTAC,-0.216
21,CCAATATA,-0.0791
22,CATTCCGG,-0.233
23,CAGGCCCC,-0.374
24,GCTATAGC,-0.246
25,CCCCAGTC,0.0336

row,Sequence,PBM E-score
1,CAGCAATA,-0.0433
2,AAGCTAGG,0.0152
3,GCCCTTTA,-0.229
4,GCTTGTTA,-0.186
5,ACCACCAT,-0.0134
6,AATAAGCT,-0.0669
7,GATTTAAA,0.224
8,CGTCTTGC,-0.24
9,TCGGGAGA,0.136
10,AGAATCCG,0.0213
11,AATCTTCT,0.201
12,CGACTAGC,0.297
13,ATGCCCCA,-0.00807
14,CTGTCTTA,-0.0858
15,AGACACGG,0.118
16,CAAGGAGG,-0.308
17,GGCACCCC,-0.215
18,AGCCGAGA,0.0772
19,AACAGAGC,-0.158
20,CTGCGAAG,-0.115
21,CTGTGACA,0.191
22,ATAGACGC,-0.203
23,ATCAGGAA,0.00077
24,CCGCTGCA,-0.145
25,AACATCTG,-0.23

row,Sequence,PBM E-score
1,CAACAACC,0.0259
2,CGAGCCAC,-0.107
3,CTAAGTTA,0.204
4,AAGATCAT,0.134
5,CCTCTGAC,0.147
6,TCCTCAGA,0.0903
7,CGCGCAAG,0.0708
8,ACATTTTG,0.0136
9,GTACGCTA,-0.197
10,ACAGAAGA,-0.139
11,ACCCACAT,0.124
12,CCGAATAA,0.101
13,CCACAAAG,-0.0168
14,ACGGTGTG,-0.108
15,CGTCTCCC,-0.223
16,AACACGCA,-0.0269
17,AGTACAAT,0.182
18,AGACTTGA,0.217
19,GCATGCGC,-0.261
20,CATGCCCC,0.155
21,TGTTGGAA,0.099
22,GGCTCAAC,0.0647
